Measured values: PubChem BioAssay AID1240 (Sanford-Burnham Center for Chemical Genomics, 2008)
Out of some 50,000 compounds screened, about 800 (1.6%) showed an effect of 50% or more. This is one part of the list.

target: Bcl-2-like protein 10 (Homo sapiens) (UniProt Q9HD36); test: Phenotype converters, Bcl-B/TR3 peptide binding displacement, primary biochemical FP (AID 1240); details: GST-Bcl-B / FITC-TR3 peptide fluorescence polarization; stronger effect = higher value; compound at 3.75 mg/L;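 note: 0% = Bcl-B with tracer peptide and DMSO and 100% = tracer peptide lacking Bcl-B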
UniProt Q9HD36, sequence (Q9HD36 whole entry, looked up): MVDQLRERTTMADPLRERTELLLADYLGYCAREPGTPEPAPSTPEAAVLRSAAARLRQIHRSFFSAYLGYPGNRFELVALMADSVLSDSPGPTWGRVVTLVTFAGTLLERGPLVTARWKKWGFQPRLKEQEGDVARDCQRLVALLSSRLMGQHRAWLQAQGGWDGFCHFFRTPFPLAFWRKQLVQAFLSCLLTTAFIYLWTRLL

Row | Structure (SMILES) | displacement [%]
1 | NC(=O)CCSc1ccc(Cl)cc1 | 9.8
2 | N#Cc1ccccc1N=Cc1ccc(Cl)cc1Cl | 19.9
3 | Cn1c(=O)c2c(nc(N/N=C/c3ccccc3Cl)n2Cc2ccccc2)n(C)c1=O | -0.9
4 | NC1=NC(=O)/C(=C\c2cccc(OCc3ccccc3)c2)S1 | -8.3
5 | CC(C(=O)O)N1C(=O)/C(=C/c2ccc3c(c2)OCO3)SC1=S (stereo not given) | 9.1
6 | CCOC(=O)CNC(=O)C(CC)CC | 1
7 | COc1ccc(-c2cc(C(=O)OC(C)C)c3cc(Br)ccc3n2)cc1 | -3.9
8 | CCOC(=O)c1c(NC(=O)c2ccc(C)c([N+](=O)[O-])c2)sc(C(=O)Nc2ccccc2OC)c1C | -6.7
9 | O=c1c2ccccc2nc(/C=C/c2ccccc2[N+](=O)[O-])n1-c1cccc2ccccc12 | -7
10 | O=C(O)CCC(=O)Nc1ccc(NC(=O)CCC(=O)O)cc1 | -5.6
11 | C=CCN1C(=O)/C(=C\c2ccc(-c3ccc([N+](=O)[O-])cc3)o2)SC1=S | 3.3
12 | CCNC(=O)c1c(-c2c(Cl)cccc2Cl)noc1C | -0.6
13 | O=C1CC(N(Cc2ccc3c(c2)OCO3)C(=O)c2ccc(Cl)cc2)C(=O)N1c1ccc(F)cc1 (stereo not given) | -2.2
14 | CCOC(=O)/C(=C\c1ccncc1)C(=O)c1cc(C(C)=O)c(Nc2ccccc2)s1 | -1.4
15 | CC(C)Cn1c(CN2C(=O)c3ccccc3C2=O)nc2ccccc2c1=O | 0.2
16 | COCCCNC(=O)CN(c1ccc(Cl)c(C(F)(F)F)c1)S(=O)(=O)c1ccccc1 | 13.8
17 | COc1ccc(C(=O)NCC23CC4CC(CC(C4)C2)C3)cc1 | -2.2
18 | C=C(C)c1cccc(C(C)(C)NC(=O)Nc2cc(C)ccn2)c1 | -15
19 | Fc1ccc(Cn2cc(/C=N/n3cnnc3)c3ccccc32)cc1 | -6.4
20 | CN(C)CC(O)CN(c1ccccc1)S(=O)(=O)c1ccc([N+](=O)[O-])cc1 (stereo not given) | 1.9
21 | COc1ccc(OC)c(/C=C2/C(=O)NC(=O)N(c3ccc(C(C)C)cc3)C2=O)c1 | -2.8
22 | COc1ccc2c(c1)-c1c(ssc1=S)C(C)(C)N2CC(=O)c1ccccc1 | 6.5
23 | CCCCOC(=O)c1ccc(NC(=O)c2ccc(OC)c(Br)c2)cc1 | 2.4
24 | CCOC(=O)c1c(NC(=O)C(Sc2ccccc2)c2ccccc2)sc(C(C)=O)c1C (stereo not given) | 17.1
25 | Cc1cc(/C=N/n2cnnc2)c(C)n1-c1ccc(Br)cc1 | 8.8
26 | COC(=O)C1=C(C)N(C)C(C)=C(C(=O)OC)C1c1ccc(-c2ccccc2)cc1 | -14.2
27 | Cc1cccc(C)c1NC(=O)c1ccc(-c2ccc(Cl)cc2Cl)o1 | 2.1

Row | Structure (SMILES) | displacement [%]
28 | O=C(Nc1ccc(-c2nc3ccccc3o2)cc1)c1ccc(-c2ccc([N+](=O)[O-])cc2)o1 | 17.1
29 | NS(=O)(=O)c1ccc(NS(=O)(=O)c2ccc(F)cc2)cc1 | -0.6
30 | C=CCNC(=O)C(=O)NCCc1ccc(F)cc1 | 11.7
31 | Cc1cccc(-n2c(C)cc(/C=C3/NC(=S)NC3=O)c2C)c1 | -38.6
32 | C=CCN1C(=O)/C(=C\c2ccc(-c3ccc([N+](=O)[O-])cc3Br)o2)C(=O)NC1=S | 9.8
33 | CC(C)(C)C1CCc2c(sc(NC(=O)/C=C/c3ccco3)c2C(N)=O)C1 (stereo not given) | 3
34 | CCN(C(=O)c1ccccc1F)c1ccccc1 | -1.9
35 | COc1ccc(-n2c(NN)nc3sc4c(c3c2=O)CCCC4)cc1 | -9.9
36 | O=C1C2C3CCC(O3)C2C(=O)N1c1ccc(Cl)cc1 (stereo not given) | -6
37 | CCOC(=O)C1=C(C)N=c2s/c(=C\c3ccc(C(=O)O)cc3)c(=O)n2C1c1ccc(OC)c(OC)c1 (stereo not given) | -22.8
38 | COc1ccc(Cn2nnc(-c3ccccc3)n2)cc1 | -1.9
39 | CCOC(=O)c1c(N)sc(C(=O)N2CCCCCC2)c1C | -13.8
40 | COC(=O)c1cc(NC(=O)c2ccc(OC)cc2)cc(C(=O)OC)c1 | 7.3
41 | Cc1ccc(Cl)c(OCCNC(C)(C)C)c1 | 5.8
42 | CCOC(=O)c1cccc(NC(=O)c2c(OC)cccc2OC)c1 | -1.3
43 | CCC(=O)Nc1ccc2nn(-c3ccc(C)c(Cl)c3)nc2c1 | 9.1
44 | O=C(Nc1cc(C(F)(F)F)ccc1Cl)c1ccccc1[N+](=O)[O-] | 2.5
45 | COc1ccccc1C(=O)N1c2ccccc2C(Nc2ccccc2)CC1C (stereo not given) | 5.6
46 | COC(=O)C1=C(C)NC(C)=C(C(=O)OC)C1c1cccc(Oc2ccccc2)c1 | 5.4
47 | CC(C)(C)c1ccc(NC(=O)c2ccc(Br)cc2)c([N+](=O)[O-])c1 | 14.4
48 | O=C(O)c1ccc(Oc2ccc3c(c2)C(=O)N(c2ccc([N+](=O)[O-])cc2)C3=O)cc1 | 2
49 | O=C(NNC(=O)c1ccc([N+](=O)[O-])cc1)Nc1ccccc1 | -5.4
50 | CCCC(=O)N1CCN(c2cc(C)c(C(C)=O)cc2F)CC1 | -14.1
51 | Cc1ccc(-n2nc3cc(C)c(NC(=O)c4ccccc4[N+](=O)[O-])cc3n2)cc1 | 7.8
52 | CN1C(=O)/C(=C\C=C\c2ccc(Br)cc2)SC1=S | 3.6
53 | COc1cc(/C=C2\Sc3ccccc3C2=O)ccc1OS(=O)(=O)c1ccc(C)cc1 | 15.5
54 | CN1CCC(=NNC(=O)C(=O)NC2CCCC2)CC1 | -23.9

Row | Structure (SMILES) | displacement [%]
55 | CC(C)(C)c1ccc(-c2nc3ccccc3[nH]2)cc1 | -2.4
56 | CC1=NN(C(=O)c2ccccc2)C(C)(O)C1(C)C (stereo not given) | 11.4
57 | O=C(O)C1C2C=CC(O2)C1C(=O)NCc1ccc(Cl)c(Cl)c1 (stereo not given) | -4.7
58 | Cc1ccc(OCC(=O)N/N=C\c2c(Br)cc(Br)c(O)c2Br)cc1 | 7.9
59 | CCOc1ccc(S(=O)(=O)N(CC(=O)NCCCOC)c2ccc(C)cc2)cc1 | -3.5
60 | CC1(C)CC(=O)C2=C(C1)Nc1ccccc1N(C(=O)c1ccccc1)C2c1ccc(C#N)cc1 (stereo not given) | -7.4
61 | CCOc1cccc(C2C(C(=O)OCCOC)=C(C)NC3=C2C(=O)CC(C)(C)C3)c1 (stereo not given) | -3
62 | CCOC(=O)c1ccccc1N/C=C/C(=O)c1ccc(OC)cc1 | -8
63 | CCc1cccc(CC)c1NC(=O)c1ccccc1OC | -4.4
64 | C(#CCSc1nc2ccccc2[nH]1)CSc1nc2ccccc2[nH]1 | 7.3
65 | O=C(CSc1nnnn1-c1ccccc1)Nc1ccc(Br)cc1 | -11.8
66 | CCCCNCCCCCCOc1ccccc1C(C)(C)C | 15.7
67 | COCCOC(=O)C1=C(C)NC2=C(C(=O)CCC2)C1c1ccc(Cl)cc1Cl (stereo not given) | 0.6
68 | COc1ccc(-n2c(O)c(C=NCc3ccc(F)cc3)c(=O)[nH]c2=O)cc1 | 12.4
69 | CCOc1cc(C(=O)Nc2ncccc2C)cc(OCC)c1OCC | 2.9
70 | O=C(CN1CCCCC1)Nc1c(-c2ccccc2)c2cc(Br)ccc2[nH]c1=O | -21.7
71 | Cn1cccc1-c1cc(C(=O)N/N=C/c2cccs2)[nH]n1 | 3.4
72 | C=CCN1C(=O)/C(=C\c2cn(Cc3ccc([N+](=O)[O-])cc3)c3ccccc23)C(=O)NC1=S | 87.4
73 | COc1ccc(-c2nc(-c3cc(OC)c(O)c(OC)c3)[nH]c2-c2ccc(OC)cc2)cc1 | 12.5
74 | CC1(C)Cc2ccccc2/C(=C/C(=O)N2CCCCCC2)N1 | -3.8
75 | O=C(NC(=S)Nc1ccc2oc(-c3ccc(I)cc3)nc2c1)c1ccccc1Cl | 9.5
76 | O=C(NC(Cc1ccccc1)C(=O)Nc1ccccn1)OCc1ccccc1 (stereo not given) | 3.9
77 | O=C(c1ccccc1)c1cc(Cl)ccc1N=Cc1ccc([N+](=O)[O-])s1 | 2.7
78 | O=C(COc1ccc(Cl)cc1)NNC(=O)c1ccc([N+](=O)[O-])cc1[N+](=O)[O-] | -6.1
79 | Cc1ccc(NC(=O)C2CC(O)CN2C(=O)Oc2ccccc2)c(C)c1 (stereo not given) | 13.8
80 | N#Cc1c(-n2ncnc2-c2cccc([N+](=O)[O-])c2)sc2c1CCCC2 | 5.6
81 | Cc1ccc(Cc2cnc(NC(=O)c3ccccc3[N+](=O)[O-])s2)cc1 | 11.8

Row | Structure (SMILES) | displacement [%]
82 | O=C1c2ccccc2NC(c2ccc(Cl)c(Cl)c2)N1Cc1ccco1 (stereo not given) | 10.9
83 | O=C(c1cc2n(n1)C(C(F)(F)F)CC(c1ccc3c(c1)OCO3)N2)N1CCN(C(c2ccccc2)c2ccccc2)CC1 (stereo not given) | 14.5
84 | COc1ccc(Cl)cc1/C=C1\C(=O)NC(=O)N(c2ccc(Cl)cc2)C1=O | 5.1
85 | O=C(COc1ccccc1[N+](=O)[O-])Nc1ccc2oc(-c3ccc(Br)cc3)nc2c1 | 10
86 | Oc1c(/C=C2\C=Nc3ccccc32)sc(=S)n1-c1ccc(F)cc1 | -13.8
87 | O=C(NN1C(=O)/C(=C/C=C/c2ccccc2[N+](=O)[O-])SC1=S)c1ccccc1Br | -0.6
88 | O=C1c2ccccc2C(=O)c2c1oc(C(F)(F)F)c2C(=O)c1ccccc1 | -30.1
89 | CSc1nc2ccc(NC(=O)/C=C/c3ccccc3)cc2s1 | -13.2
90 | CS(=O)(=O)N(Cc1ccc(Cl)cc1)c1ccc(C(=O)NCC2CCCO2)cc1 (stereo not given) | -9.7
91 | Cc1cccc(C)c1OCC(=O)Nc1ccc(-c2nc3ccccc3[nH]2)cc1 | 10.5
92 | COc1ccc(/C=C/C(=O)Nc2ccccc2O)cc1 | 8.1
93 | COC(=O)C1=C(C)N(c2ccccc2)C(=O)/C1=C\c1ccc(C(=O)OC)cc1 | 130
94 | CSc1nc2ccc(NC(=O)CSc3ccccn3)cc2s1 | 1.5
95 | Cn1c2ccc(CC(N)=O)cc2c2cc(CC(N)=O)ccc21 | 0
96 | CCC(=O)N1CCN(c2cc(C)c(C(C)=O)cc2F)CC1 | -15.1
97 | CN1CCN(C(=O)/C(=C\c2cccs2)NC(=O)c2ccccc2)CC1 | -8.8
98 | COc1ccc(/C=N\Nc2nc(-c3ccccc3)cc(-c3ccccc3)n2)cc1OC | -3.9
99 | O=C(Nc1ccc(NC(=O)c2ccc(-c3ccc(F)cc3)o2)cc1)c1ccco1 | 4.5
100 | COC(=O)c1ccc(NC(=O)c2ccoc2C)cc1 | -2.7
101 | O=C(Nc1ccccc1O)c1cc(I)ccc1Cl | 0.7
102 | Cc1ccc(CN2CCN(N=Cc3ccc(Br)cc3)CC2)c(C)c1 | 11.9
103 | CCOC(=O)c1c(NC(=S)Nc2ccc(C)cc2)sc2c1CCN(Cc1ccccc1)C2 | -58.5
104 | COc1ccc(C=NCCC23CC4CC(CC(C4)C2)C3)c(OC)c1 | 1.2
105 | CCc1c(O)nc(SCCN(CC)CC)[nH]c1=O | -16.6
